Consider 44 sequences from the supplement of paper PMC11417369.

The other results are listed elsewhere or left out.

This experiment deals with PfSIP2 AP2 domain 1 (GST-tagged). Kind of experiment: gcPBM binding intensity (ln(normalized median fluorescence intensity)); higher = stronger DNA binding. Put shortly:
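After 1 h on an Agilent 4 × 180k array of primer-extended double-stranded 36-bp intergenic genomic probes and negative controls, bound GST-tagged P. falciparum DNA-binding domains were detected with Alexa488 anti-GST antibody and scanned at 488 nm. The domains had been expressed in E. coli, and binding took place in 1× PBS with 1% milk, 0.2 mg/ml BSA, 0.5% salmon testes DNA and 0.03% Triton X-100. Binding intensity is the highest Masliner-normalised natural-log median intensity across replicate spots of either probe orientation.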
With “AATAAATTGGTATGTTGTACAAAGTAACCATCGATT [XGTACX_site2823]”, the “gcPBM binding intensity (ln)” value stood at 6.93.
For “ATATCATGTTAAGATTGTACATATATATAATATATA [XGTACX_site7626]”, the “gcPBM binding intensity (ln)” value is 7.31.
The figure for “TTAAAATATGAATAATGTACAAGAAATTTTATTAAT [XGTACX_site6314]” is 6.93; for “ATTATTACATTTTTATGTACATATCAAATTTATACA [XGTACX_site7332]” it is 7.09.
To “TTAACTTAAGGAGAGTGTACAAATAATAAAATATCT [XGTACX_site4118]” belongs 7.17; to “ATATTTTTTACAAATTGTACATTTTTACAATTATTA [XGTACX_site7496]”, 6.99.
The figure for “TAACCTAAAATAACTACACACACATAAAAAAAAAAA [CACACA_site8807]” is 6.89; for TATAAATTAAAATGTGTGCACTAAATTGAAATAGAA it is 10.7; for “ATATATATATATAATAGTACATATATTTTTATTGGT [XGTACX_site711]” it is 9.08.
For “TCACTTAATATTTAATGTACATAAGGTTCTTGTGCC [XGTACX_site1822]”, the “gcPBM binding intensity (ln)” value was determined as 7.13.
The figure for “TTATATAACATTATTTGTACATATAAAATATGGATG [XGTACX_site8526]” is 7.17.
Turning to “AAAAAAAATTTATGGGGTACATATTATAATATTATA [XGTACX_site3395]”, the “gcPBM binding intensity (ln)” value came to 7.38.
With “GTTTTCATCCAAAAAAGTACATTTATTTTTATACGA [XGTACX_site1039]”, the “gcPBM binding intensity (ln)” value was found to be 7.27.
The figure for “GTAGTGGTTGAATATACACACATATATAAATAAATA [CACACA_site7282]” is 7.
With “ATGTATGAATTACATAGTACATAAGAAAAAATGAAG [XGTACX_site5942]”, the “gcPBM binding intensity (ln)” value worked out at 7.45.
To “GGAAAATCTTTATAATGTACATTATGATTATATAAT [XGTACX_site6256]” belongs 7.01; to “AAATATAAAGTGCACACACACAAAAAAAGAAAAAAA [CACACA_site6452]”, 11.2.
The figure for “TTATTTTTTTTAAATTGTACAAGGAACAGTGAAAAA [XGTACX_site4380]” is 7.83; for TTTGTGTGTACGCGTGTGCACATTTTTTTTTTTTTT it is 9.36.
Regarding “TAAATGTCTTCAATGAAGTGGAAATGCTGTTATATA [CACACA_negctrl_site1155]”, the “gcPBM binding intensity (ln)” value stood at 6.96.
As to “TATATAACCTATAGCACACATATATAATATATATTA [CACACA_site1834]”, the “gcPBM binding intensity (ln)” value is 6.98.
For “AAATGTAATATAAATAGTACATATTAAATAAAATTA [XGTACX_site6917]”, the “gcPBM binding intensity (ln)” value turned out to be 6.86.
With “ATGTGCACATATAAAAGTACACGCACATATATATAT [XGTACX_site1238]”, the “gcPBM binding intensity (ln)” value is 9.66.
Take “TGCACAAAGTTATGCACACACCTAAAATTAATTTTT [CACACA_site7385]”: the “gcPBM binding intensity (ln)” value worked out at 8.69.
As to “TATACACATATATACACACACATATATAAATAAATA [CACACA_site7579]”, the “gcPBM binding intensity (ln)” value came to 7.26.
The figure for “TTATAATATGTATACACACACATATATAGATATATA [CACACA_site7159]” is 7.1; for “ATTCTTTATATGCATACACACCTAATATAGGGACCT [CACACA_site6830]” it is 7.49; for “GTACATAGGTATAGCACACACAAATGTAGGTATTTT [CACACA_site4049]” it is 6.77.
To “AAAAAAAAAAAAAAAACACACATAAAAATATAATAA [CACACA_site3855]” belongs 7.48; to ATTATATATAATATAGTGCATGTAAAAAATAAAACA, 10; to “AAGAATATTATAAACACACACTTTATAAAGAATTAT [CACACA_site4241]”, 6.87.
For “TATATAATTGTCTTCACACACACATATATATATATA [CACACA_site2744]”, the “gcPBM binding intensity (ln)” value was determined as 9.25.
“TATTTTATTTGTATATTCATTTGTATAATATAAATA [TGCATGCA_negctrl_site267]”: the “gcPBM binding intensity (ln)” value is 6.79.
The figure for “AAGGAAAAGTAAAGAAGTACTGTACCGCCAAAAAAA [XGTACX_site2607]” is 6.98; for “AATTTATTTTTTTGATGTACATACAATTTATCACAA [XGTACX_site5936]” it is 7.3; for “TTGATGTTGGTAGGATGTACGGTACCGGTAGTATTT [XGTACX_site6642]” it is 6.98.
As to “AAAATAATAAAAAGGGGTACAAAGAAACAAATATAA [XGTACX_site296]”, the “gcPBM binding intensity (ln)” value worked out at 7.09.
To “TATGTGCATATAAACTCACACATTGTATATTACATG [CACACA_site6106]” belongs 9.08; to “TTTATTAAAATATTCTCACACACCAAAATATGTATG [CACACA_site932]”, 6.78.
To “ATAAAATAACACAACGTTGACAAATTTGGATGACTC [XGTACX_negctrl_site324]” belongs 7.08; to “ATATATGTAGATATATGTACATATATAGGTAGATAT [XGTACX_site7589]”, 7.23.
The figure for “AAAAATTTATTTAAAAGTACATAAAATAAAGGTGGA [XGTACX_site7591]” is 7.4.
On to “ATTTTAGAATTTAATACACACAAAAAAAAAAAATTA [CACACA_site3704]”, for which the “gcPBM binding intensity (ln)” value turned out to be 6.86.
On to “TATTACATTATATAAACATGCAAAACTATATATTAT [TGCATGCA_site601]”, for which the “gcPBM binding intensity (ln)” value was 7.03.
